Molecules are shown by their SMILES.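 Values below derive from 48-hour exposures of cells grown in 96-well plates, with endpoints linearly interpolated between the two concentrations bracketing the appropriate inhibition level. Abbreviation: GI50, concentration required for 50% inhibition of growth.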 Active and inactive are the calls of the source. Cut-off read from the data, not from the text of the source: active = GI50 up to about 1.1 µM and inactive = higher.

This assay has as its system NCI-H322M. As to the kind of experiment: inhibition of tumour cell growth, NCI panel, 48 h.
Consider `CCC1c2[nH]c3ccccc3c2C[C@H]2C(=O)NC(C)C(=O)N12` (stereo partly specified), for which the GI50 is inactive: > 100 µM. The value for `Fc1ccc(C(OCCN2CCC3CCC(C2)N3CCCc2ccccc2)c2ccc(F)cc2)cc1` (stereo unspecified) was inactive: 10.4 µM; that for `c1ccc(C2=Nc3cccc4cccc(c34)N2)cc1` was inactive: > 100 µM. In the case of `COc1ccc2oc(=O)cc(C)c2c1`, the GI50 was inactive: > 100 µM. The value for `O=C(O)c1ccc(Oc2nc3ccccc3s2)cc1` was inactive: > 100 µM. `c1ccc2c[n+](CCCCCCCCCC[n+]3ccc4ccccc4c3)ccc2c1`: the GI50 was inactive: > 10 µM. Regarding `COc1cc(/C=C2\C[C@H]3[C@@H]4CC=C5C[C@@H](N6CCCC6)CC[C@]5(C)[C@H]4CC[C@]3(C)[C@H]2O)cc(OC)c1OC`, the GI50 is inactive: 16.1 µM. `NNC(=O)CS(=O)(=O)Nc1ncccn1`: the GI50 is inactive: > 100 µM. Consider `O=[N+]([O-])c1ccc2c(c1)C(N1CCN(CCO)CC1)Cc1ccc(F)cc1S2` (stereo unspecified), for which the GI50 is inactive: 12.3 µM. The value for `CN(C)CCn1c(=O)c2ccc(NCCCN(C)CCCNc3ccc4c(=O)n(CCN(C)C)c(=O)n5c6ccc(O)cc6c(=O)c3c45)c3c(=O)c4cc(O)ccc4n(c1=O)c23` was active: < 0.01 µM; that for `CC(=O)OCC1OC(n2c(-c3ccccc3)c(C)c(C)c(C#N)c2=S)C(OC(C)=O)C(OC(C)=O)C1OC(C)=O` (stereo unspecified) was inactive: > 100 µM; that for `CC1(C)CC(C2CC(C)(C)CC(C)(C)[C@H]2O)[C@@H](O)C(C)(C)C1` (stereo partly specified) was inactive: > 100 µM. For `CCOC(=O)c1cc2c(cn1)[nH]c1cccc(N)c12`, the GI50 was inactive: > 100 µM. Consider `COC(=O)/C=C/c1ccc2nncnc2c1.COC(=O)/C=C\c1ccc2nncnc2c1`, for which the GI50 is inactive: 50 µM. As for `N#Cc1c(N)n(-c2nc3ccccc3s2)c(=O)c2cc([N+](=O)[O-])ccc12`, the GI50 is inactive: 14.9 µM.

For the molecule `CN(C)N1C(=O)c2ccccc2NC1c1ccccc1` (stereo unspecified), the GI50 is inactive: > 100 µM. With `O=C1OC2C(O)COC2(O)C1(O)Cc1c[nH]c2ccccc12` (stereo unspecified) the figure was inactive: > 100 µM; with `O=C1CSC(/C(=C/c2ccccc2)c2nc3ccccc3[nH]2)=N1`, inactive: 60.3 µM; with `O=C1/C(=C/C=C/c2ccccc2)CCC1CNc1ccccc1` (stereo unspecified), inactive: > 100 µM. The value for `CC(=O)OC[C@@H]1[C@H]2CC(=O)O[C@H]2C[C@H]1OC(C)=O` was inactive: > 100 µM; that for `CCN1CCCCCCCCCC(=N/O)/C(=N\O)C1` was inactive: > 100 µM. With `O=C(/C(=C/c1ccc(Cl)cc1)c1ccccc1)c1ccccc1` the figure was inactive: 26.5 µM; with `Cc1cc(-c2cccc3ccccc23)c(C#N)c(=S)n1C1OC(CO)C(O)C(O)C1O` (stereo unspecified), inactive: > 100 µM. With `COC(=O)/C=C/c1cnc2c(c1)oc(=O)n2CCc1ccccn1`, the GI50 was inactive: > 100 µM. Consider `O=C(C/C=C/c1ccccc1)c1ccccc1`, for which the GI50 was inactive: > 100 µM. For the molecule `O=C1c2cc3c(cc2CC12Cc1cc4c(cc1C2)CCC4)CCC3`, the GI50 was inactive: > 100 µM.

For `CC(C#N)NCc1ccc(C(C)NC(C)C#N)cc1` (stereo unspecified), the GI50 was inactive: > 100 µM. In the case of `CN(C)CC[N+]1=Nc2cccc3cccc(c23)N1`, the GI50 is inactive: 54 µM. With `CCOC(=O)C(C(=O)OCC)=C1NC2(c3ccccc3Nc3ccccc32)C(C#N)S1` (stereo unspecified), the GI50 was inactive: 16.3 µM. With `COc1cccc(CCn2c(N)c(C#N)c3ccc([N+](=O)[O-])cc3c2=O)c1`, the GI50 was inactive: > 46.5 µM. On to `O=C(O)c1ccc(C2COc3ccc(Cl)cc3C2)cc1` (stereo unspecified), for which the GI50 was inactive: > 100 µM. Consider `CC(=O)OC1C(CCl)OC(N=[N+]=[N-])C(OC(C)=O)C1OC(C)=O` (stereo unspecified), for which the GI50 is inactive: > 100 µM. On to `O=C1CC(=O)NC(NN2C(=O)CSC2C(=O)c2ccco2)=N1` (stereo unspecified), for which the GI50 is inactive: > 100 µM. `C/C(=C/CO[Si](C)(C)C(C)(C)C)C(=O)N(C)c1ccccc1I`: the GI50 is inactive: 16.6 µM. For `O=c1c2cc(I)ccc2nc(SCc2nncs2)n1Cc1ccccc1`, the GI50 was inactive: 20.4 µM. Regarding `C=C(C(=O)OC)N1C(=O)CC(C)C1=O` (stereo unspecified), the GI50 was inactive: 44.2 µM. Regarding `COc1ccc(CN2CCC/C=C/CC(Cl)(Cl)C2=O)cc1`, the GI50 is inactive: 43.9 µM.

Regarding `CN1CCCc2nc3ccccc3n2C1`, the GI50 was inactive: > 100 µM.

For the molecule `CCOc1ncn(-c2ccc(NC(=S)Nc3cnccn3)cc2)n1`, the GI50 is inactive: > 10 µM. The value for `N/C(CCSCCSCC/C(N)=N\O)=N\O` was inactive: > 100 µM. As for `N=S(=O)(c1ccccc1)c1ccccc1`, the GI50 is inactive: > 100 µM. As for `Cc1cc(Nc2ccc(/N=N/c3ccc(O)c4ncccc34)cc2)nc(C)n1`, the GI50 is inactive: 22.4 µM. As to `Cc1ccc2c(c1)C(=O)c1nc(C)ccc1C2=O`, the GI50 was inactive: 16.5 µM. For `C[C@H](NC(=O)OC1C2C=CC(O)C1CC2)c1ccccc1` (stereo partly specified), the GI50 was inactive: > 100 µM. Consider `Cc1cn(C2CC(O)C(Cn3nncc3Cn3cnc4c(N)ncnc43)O2)c(=O)[nH]c1=O` (stereo unspecified), for which the GI50 was inactive: > 100 µM. The value for `Nc1ccc(S(=O)(=O)Nc2nc3ccccc3nc2N2CCCCC2)cc1` was inactive: > 100 µM; that for `O=C1CSC(c2ccccc2O)N1c1ccc(-c2ccc(-n3c(-c4ccccc4)nc4ccccc4c3=O)cc2)cc1` (stereo unspecified) was inactive: 22.7 µM; that for `CC1CC(N)=Nc2ccccc2N1` (stereo unspecified) was inactive: > 100 µM. As to `C/C(Cc1ccc2c(c1)OCO2)=N\NC(=O)C(C)Sc1nnc(SC(C)C(=O)N/N=C(\C)Cc2ccc3c(c2)OCO3)s1` (stereo unspecified), the GI50 is inactive: > 100 µM.

Turning to `CC(=O)NC1C(OCc2ccccc2)OC(CO)C(O)C1OCC(=O)NC(C(=O)NC(CCC(=O)NCCCCCC(=O)Nc1ccc2c(c1)CN1C(=O)c3ccccc3C1=N2)C(N)=O)C(C)C` (stereo unspecified), the GI50 is inactive: 12.4 µM. On to `COc1c(CC=C(C)C)c(O)c(C(CC(C)C)c2c(O)c3c(c(C(C)=O)c2O)OC(C(C)(C)O)C3)c(O)c1C(C)=O` (stereo unspecified), for which the GI50 was inactive: 4.43 µM. As for `CN1C(=O)[C@H](c2c[nH]c3ccccc23)[C@H](c2c[nH]c3ccccc23)C1=O`, the GI50 is inactive: 45.5 µM. Consider `COc1ccc(-n2c(C)nc3ccc(/N=C/c4ccccc4)cc3c2=O)cc1`, for which the GI50 is inactive: > 100 µM. The value for `CCOC(=O)Cc1cc(OC)c(OC)cc1/C(Cl)=C(\CO)c1ccc(OC)c(OC)c1` was inactive: > 100 µM. With `Nc1ccccc1C(=O)/C=C/c1c(O)ccc2ccccc12` the figure was inactive: > 100 µM.

Turning to `O=CN1CCN(c2ccc3ccc(O)nc3n2)CC1`, the GI50 is inactive: > 100 µM.

Regarding `CC(=O)NNc1nc(C)c(C(/C=C/c2cccc([N+](=O)[O-])c2)=N/NC(=S)NN)s1`, the GI50 was inactive: > 100 µM. On to `O=C1CC(n2ccnc2)c2c(Cl)sc(Cl)c21` (stereo unspecified), for which the GI50 was inactive: 19.2 µM. On to `C[C@H](CCc1nc(C#N)c(N)o1)[C@H]1CC[C@H]2[C@@H]3CCC4C[C@@H](O)CC[C@]4(C)[C@H]3C[C@@H](O)[C@]12C` (stereo partly specified), for which the GI50 was inactive: 17.3 µM.

On to `O=c1[nH]c(=O)n(C2OC(CO)C(N(O)Cc3ccc(F)cc3)C2O)cc1Br` (stereo unspecified), for which the GI50 was inactive: > 100 µM. For the molecule `COc1cc(Nc2nc3cc(C)ccc3nc2-c2ccccc2)cc(OC)c1OC`, the GI50 was inactive: 58.9 µM. With `CC1(c2ccc(F)cc2)C(C#N)C(=O)NC(=O)C1C#N` (stereo unspecified) the figure was inactive: > 100 µM; with `C#CC(O)Cc1ccc(OC)c2occc12` (stereo unspecified), inactive: > 100 µM; with `COCN1C(=O)[C@@H]2C[C@@H](OC/C=C/CBr)CN2C(=O)c2ccccc21`, inactive: 16.6 µM. With `COC(=O)C(C)(Cc1ccc2c(c1)nnn2C(C)=O)NC(C)=O` (stereo unspecified) the figure was inactive: > 100 µM; with `C1=C(c2ccccc2)C(N2CCOCC2)Oc2ccccc21` (stereo unspecified), inactive: 36.6 µM. On to `Cc1ccc(NC(=O)c2cc(S(=O)(=O)Nc3nc4cccnc4[nH]3)c(SSc3cc(Cl)c(C(=O)Nc4ccc(C)cc4)cc3S(=O)(=O)Nc3nc4cccnc4[nH]3)cc2Cl)cc1`, for which the GI50 was inactive: > 100 µM. The value for `Cc1[nH]c(-c2ccccc2)c2nc(N(C)C)oc(=O)c12` was inactive: > 100 µM; that for `C[C@H]1C[C@H]2[C@@H]3CCC4=CC(=O)C=C[C@]4(C)C3=CC[C@]2(C)[C@@]1(O)C(=O)CO` was inactive: > 100 µM. `Cc1ccc2nc(-c3ccc(-n4c(C)nc(=O)c(-c5ccc(F)cc5)c4C)cc3)sc2c1`: the GI50 is inactive: 16 µM. Turning to `C1=CC2C(C3CN(c4ccccc4)N=C13)C1C3C4C=CC21C=CC43` (stereo unspecified), the GI50 was inactive: > 100 µM.

For the molecule `CC(=O)[C@H]1CC[C@@H]2[C@]1(C)CC=C1[C@]23C=C[C@]2(C[C@@H](O)CC[C@]12C)C(C(=O)O)C3C(=O)O` (stereo partly specified), the GI50 was inactive: > 100 µM. Regarding `NC1=NN(c2ccccc2)C(=O)C1C(=O)C(=O)Nc1cccc(C(F)(F)F)c1` (stereo unspecified), the GI50 is inactive: > 100 µM.

Take `NC(=O)C(=O)CC(=O)c1ccccc1NC1=CC(=O)C(=O)c2ccccc21`: the GI50 was inactive: > 100 µM.

As for `O=S(=O)(O)c1cc(S(=O)(=O)O)c2c(/N=N/c3ccc(S(=O)(=O)O)c4ccccc34)c(O)ccc2c1`, the GI50 is inactive: > 100 µM. Consider `CC(C)C(C/C=C1/CC(CO)(COC(=O)c2ccccc2)OC1=O)C(C)C` (stereo unspecified), for which the GI50 was inactive: 14.9 µM. Regarding `CC(NNC(=O)c1cc[n+]([BH2-]C#N)cc1)c1ccc(Cl)cc1Cl` (stereo unspecified), the GI50 was inactive: 43.5 µM. `CCOC(=O)C(C)OC(=O)c1ccc(C)cc1` (stereo unspecified): the GI50 was inactive: > 100 µM.

Take `N/C(=N\O)N/N=C/c1ccc2c(c1)OCCO2`: the GI50 was inactive: 4.28 µM. The value for `CC(=O)Oc1cccc2c1C(=O)c1c(OC(C)=O)cc(C)cc1C2=O` was inactive: > 100 µM; that for `O=C(CCCn1cnc([N+](=O)[O-])n1)NCCCn1ccnc1[N+](=O)[O-]` was inactive: > 100 µM.

The values are drawn from ChEMBL document CHEMBL1201862, “PubChem BioAssay data set” (2004).
